{"source": "the supplement of paper PMC4723716", "note": "“And” between values parts separate entries of the source, which are not always exact repeats. Equal entries are not always repeated. ± gives the uncertainty stated by the source. In all, about 9,900 compounds were measured (“viability index relative to DMSO control”: median about 1, lowest 2% from about 0.85 on). This is one part of the list.", "data": [{"system": "Plasmodium falciparum NF54 stage V gametocytes", "test": "viability index relative to DMSO control (fraction); higher = less gametocyte killing", "details": "2.5 µM, library set: Broad Institute DOS, incubation time: 72 h", "procedure,_shortened": "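In 1,536-well plates, 10 µl of serum-free medium holding P. falciparum NF54 stage V gametocytes (0.75% gametocytemia, 1.25% hematocrit) received compound at 2.5 µM for 72 hr at 37°C in low oxygen. After one to two hours with 3 µl of 2.5 µM MitoTracker Red CMXRos containing 0.13% saponin, red particles of 20–70 µm2 were counted in a single field per well. Viability index is reported as the particle count over the plate mean of wells treated with solvent only.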", "values": [{"smiles": "COc1ccc2c3c([nH]c2c1)[C@@H](CO)N(C[C@]31CN(Cc2ccccc2)C1)C(=O)CN1CCOCC1", "viability index": "0.937 ± 0.1"}, {"smiles": "CN(C)Cc1cn(CC[C@H]2CC[C@@H](NC(=O)Cc3cccnc3)[C@@H](CO)O2)nn1", "viability index": "1.02 ± 0.02"}, {"smiles": "O=C(CC1CC1)N1CC(=O)N2[C@H](C1)[C@@H](c1ccc(/C=C/c3ccccc3)cc1)[C@@H]2CO", "viability index": "1.04 ± 0.096"}, {"smiles": "CN1C(=O)c2cc(NC(=O)Cc3cccs3)ccc2OC[C@@H]2O[C@@H](CC(=O)NCCc3ccncc3)CC[C@@H]21", "viability index": "1.07 ± 0.14"}, {"smiles": "O=C(C1CCOCC1)N1CC(=O)N2[C@H](CO)[C@H](c3ccc(-c4cccnc4)cc3)[C@@H]2C1", "viability index": "1.09 ± 0.13"}, {"smiles": "COCC(=O)Nc1ccc2c(c1)[C@@H]1C[C@H](CC(=O)N[C@H](C)c3ccccc3)O[C@H](CO)[C@@H]1O2", "viability index": "1.03 ± 0.05"}, {"smiles": "O=C(C[C@@H]1CC[C@H](NS(=O)(=O)c2ccccc2F)[C@@H](CO)O1)NCCCN1CCOCC1", "viability index": "1.02 ± 0.12"}, {"smiles": "C[C@@H]1CN([C@H](C)CO)C(=O)CCCn2nncc2CO[C@H]1CN(C)C(=O)CCC(F)(F)F", "viability index": "0.954 ± 0.021"}, {"smiles": "CCC(=O)N1C[C@H](C)[C@H](OC)CN(C)C(=O)c2ccc(NC(=O)CC(F)(F)F)cc2OC[C@@H]1C", "viability index": "1.08 ± 0.032"}, {"smiles": "C/C=C/c1ccc2n(c1=O)C[C@@H]1[C@@H](CO)[C@H](C(=O)N[C@@H](C)c3ccccc3)N(C(=O)c3ccccn3)[C@H]21.C/C=C\\c1ccc2n(c1=O)C[C@@H]1[C@@H](CO)[C@H](C(=O)N[C@@H](C)c3ccccc3)N(C(=O)c3ccccn3)[C@H]21", "viability index": "1.09 ± 0.013"}, {"smiles": "COc1cccc(S(=O)(=O)N2C[C@@H](O)COC[C@H]3O[C@@H](CC(=O)NCCCN4CCOCC4)CC[C@@H]32)c1", "viability index": "1.01 ± 0.1"}, {"smiles": "C[C@@H]1CN([C@H](C)CO)C(=O)c2ccccc2-c2ccccc2CO[C@@H]1CN(C)Cc1ccc2c(c1)OCCN2C", "viability index": "0.968 ± 0.014"}, {"smiles": "CC(C)NC(=O)N1Cc2cc(C(=O)NC3CCC3)nc(-c3cccc(-c4cncnc4)c3)c2[C@@H]1CCO", "viability index": "1.01 ± 0.018"}, {"smiles": "C[C@@H]1CN([C@H](C)CO)C(=O)c2cc(NC(=O)Nc3cccc4ccccc34)ccc2O[C@@H]1CN(C)S(=O)(=O)c1cccs1", "viability index": "0.977 ± 0.082"}, {"smiles": "O=C(CN1CCOCC1)N1[C@@H]2CNc3ccccc3[C@@H]2[C@@H]1CO", "viability index": "1.05 ± 0.078"}, {"smiles": "N#C[C@@H]1[C@@H](c2ccccc2-c2cccc(F)c2)[C@H](CO)N1C(=O)CN1CCOCC1", "viability index": "1.08 ± 0.058"}, {"smiles": "COC(=O)[C@@H]1[C@@H](CO)[C@@H]2Cn3c(ccc(-c4ccccc4OC)c3=O)[C@@H]2N1C(=O)c1cnccn1", "viability index": "1.09 ± 0.054"}, {"smiles": "C[C@@H]1CN([C@H](C)CO)C(=O)c2cc(NC(=O)Cn3cnnn3)ccc2O[C@H]1CN(C)C(=O)Nc1ccc2c(c1)OCO2", "viability index": "1.01 ± 0.13"}, {"smiles": "C/C=C/c1ccc([C@H]2[C@H]3CN(C(=O)Nc4ccc(F)cc4)CC(=O)N3[C@H]2CO)cc1", "viability index": "0.995 ± 0.042"}, {"smiles": "C[C@H](CO)N1C[C@H](C)[C@@H](CN(C)Cc2cccc(C(=O)Nc3ccccc3N)c2)OCc2ccccc2-c2c(n(C)c3ccccc23)C1=O", "viability index": "0.887 ± 0.053"}, {"smiles": "N#C[C@H]1[C@@H](c2ccccc2)[C@H](CO)N1C(=O)c1ccccc1F", "viability index": "1.09 ± 0.032"}, {"smiles": "Cc1noc(C)c1S(=O)(=O)Nc1ccc2c(c1)C(=O)N([C@@H](C)CO)C[C@@H](C)[C@H](CN(C)Cc1ccc(C(=O)O)cc1)OCCCC[C@@H](C)O2", "viability index": "1.14 ± 0.17"}, {"smiles": "CCS(=O)(=O)N1CC2(C1)[C@H](c1ccccc1)[C@H](CO)N2Cc1ccccn1", "viability index": "1.08 ± 0.082"}, {"smiles": "CCCC#Cc1ccc([C@@H]2[C@H](C#N)N(C(=O)CN3CCOCC3)[C@H]2CO)cc1", "viability index": "1.1 ± 0.042"}, {"smiles": "CO[C@H]1CN(C)C(=O)c2cc(NC(=O)NC(C)C)ccc2OC[C@@H](C)N(Cc2ccccc2)C[C@@H]1C", "viability index": "0.951 ± 0.04"}, {"smiles": "CN1C(=O)c2cc(NS(=O)(=O)c3cccc(F)c3)ccc2OC[C@H]2O[C@@H](CC(=O)N3CCc4ccccc4C3)CC[C@H]21", "viability index": "1.07 ± 0.069"}, {"smiles": "COc1ccc(C#Cc2ccc3c(c2)[C@H]2[C@H](CCN2C(=O)Nc2ccc(C(F)(F)F)cc2)[C@@H](CO)N3C)cc1", "viability index": "1.09 ± 0.013"}, {"smiles": "CC(=O)N1CCCCN2[C@@H](CO)[C@H](c3ccc(-c4ccccc4)cc3)[C@@H]2C1", "viability index": "1.07 ± 0.068"}, {"smiles": "O=C(C[C@@H]1C=C[C@H](NC(=O)Nc2ccc3c(c2)OCO3)[C@H](CO)O1)NCCCN1CCOCC1", "viability index": "0.947 ± 0.071"}, {"smiles": "O=C1CCCn2cc(nn2)COCCN1", "viability index": "0.987 ± 0.11"}, {"smiles": "C[C@@H]1CN([C@H](C)CO)C(=O)c2cc(NC(=O)Cn3cnnn3)ccc2O[C@@H]1CN(C)C(=O)Nc1ccc2c(c1)OCO2", "viability index": "0.99 ± 0.022"}, {"smiles": "O=C(c1cnccn1)N1CC(=O)N2[C@@H](CO)[C@H](c3ccc(/C=C/c4ccccc4)cc3)[C@@H]2C1", "viability index": "1.05 ± 0.098"}, {"smiles": "O=C(C[C@H]1CC[C@@H](NC(=O)CC2CC2)[C@@H](CO)O1)NCC(F)(F)F", "viability index": "0.998 ± 0.059"}, {"smiles": "COc1ccccc1-c1cccc(-c2nc(C(=O)N3CCN(C)CC3)cc3c2[C@@H](CCO)N([S@](=O)C(C)(C)C)C3)c1", "viability index": "0.997 ± 0.12"}, {"smiles": "CN(C)C(=O)c1ccc(-c2ccc([C@@H]3[C@H]4CNC[C@@H]3N4S(=O)(=O)c3ccc(Cl)cc3)cc2)cc1", "viability index": "1.17 ± 0.052"}, {"smiles": "CC(C)C#Cc1ccc([C@@H]2[C@@H](C#N)N(C(=O)c3cccc(F)c3)[C@H]2CO)cc1", "viability index": "1.0706 ± 0.00037"}, {"smiles": "Cc1noc(C)c1NC(=O)N(C)C[C@@H]1OCc2cn(nn2)CCCC(=O)N([C@H](C)CO)C[C@H]1C", "viability index": "1.05 ± 0.037"}, {"smiles": "CN(C)C(=O)c1ccc(-c2ccc([C@@H]3[C@H](C#N)N[C@H]3CO)cc2)cc1", "viability index": "1.11 ± 0.13"}, {"smiles": "COc1cccc(-c2ccc([C@@H]3[C@@H]4CN(S(=O)(=O)Cc5ccccc5)C[C@H]3N4)cc2)c1", "viability index": "0.808 ± 0.031"}, {"smiles": "C[C@H](CO)N1C[C@H](C)[C@H](CN(C)C(=O)Nc2cccc(Oc3ccccn3)c2)OCc2cnnn2CCCC1=O", "viability index": "1.02 ± 0.022"}, {"smiles": "O=C(c1ccncc1)N1C[C@H]2[C@@H](c3ccccc31)[C@@H](CO)N2Cc1ccccc1F", "viability index": "1.03 ± 0.053"}, {"smiles": "CN1C(=O)c2cc(NC(=O)c3cccc(F)c3)ccc2OC[C@H]2O[C@@H](CC(=O)NCc3ccccc3Cl)CC[C@@H]21", "viability index": "1.06 ± 0.031"}, {"smiles": "C[C@H]1CCCCO[C@@H](CN(C)C(=O)CCC(F)(F)F)[C@@H](C)CN([C@@H](C)CO)C(=O)c2cc(NC(=O)C3CCCCC3)ccc2O1", "viability index": "1.06 ± 0.13"}, {"smiles": "N#C[C@H]1[C@@H](c2ccccc2C2=CCCC2)[C@H](CO)N1C(=O)C1CCOCC1", "viability index": "1.09 ± 0.17"}, {"smiles": "COc1cccc(NC(=O)Nc2ccc3c(c2)C(=O)N(C)C[C@@H](OC)[C@H](C)CN(CC2CC2)[C@H](C)CO3)c1", "viability index": "1.06 ± 0.035"}, {"smiles": "O=C(Cc1cccnc1)N1CC(=O)N2[C@@H](CO)[C@@H](c3ccc(C#CC4CCCCC4)cc3)[C@@H]2C1", "viability index": "1.04 ± 0.028"}, {"smiles": "CCCNC(=O)Nc1ccc2c(c1)OC[C@H](C)N(Cc1cncnc1)C[C@H](C)[C@H](OC)CN(C)C2=O", "viability index": "1.06 ± 0.075"}, {"smiles": "C[C@H]1CN([C@@H](C)CO)C(=O)c2ccccc2-c2ccccc2CO[C@H]1CN(C)S(=O)(=O)c1cccc(C#N)c1", "viability index": "0.982 ± 0.11"}, {"smiles": "COc1ccc(NC(=O)Nc2cccc3c2O[C@H](CN(C)Cc2ccc(C(=O)O)cc2)[C@H](C)CN([C@H](C)CO)C3=O)cc1", "viability index": "0.884 ± 0.2"}, {"smiles": "COc1ccc(CN(C)C[C@@H]2Oc3ccc(NC(=O)Nc4ccc5c(c4)OCO5)cc3CC(=O)N([C@H](C)CO)C[C@H]2C)cc1", "viability index": "0.939 ± 0.081"}, {"smiles": "COc1ccc2c3c([C@@H](CO)N(CC4CC4)C[C@]33CCN(CC3)S(=O)(=O)c3cccs3)n(C)c2c1", "viability index": "0.991 ± 0.044"}, {"smiles": "COCCNC(=O)C[C@H]1CC[C@@H]2[C@H](COc3ccc(NC(=O)Nc4cccc(F)c4)cc3C(=O)N2C)O1", "viability index": "1.16 ± 0.029"}, {"smiles": "CN1C(=O)c2cc(NC(=O)C3CCOCC3)ccc2OC[C@@H]2O[C@@H](CC(=O)NCc3ccccc3F)CC[C@H]21", "viability index": "1 ± 0.012"}, {"smiles": "Cc1ccc(S(=O)(=O)N(C)C[C@H]2Oc3c(NS(C)(=O)=O)cccc3C(=O)N([C@H](C)CO)C[C@H]2C)cc1", "viability index": "0.988 ± 0.11"}, {"smiles": "C[C@H](CO)N1C[C@H](C)[C@H](CN(C)C(=O)NC2CCCCC2)Oc2c(NC(=O)c3cnccn3)cccc2C1=O", "viability index": "1.03 ± 0.034"}, {"smiles": "C[C@@H]1CN([C@@H](C)CO)C(=O)c2cccc(NC(=O)c3cnccn3)c2O[C@H]1CN(C)C(=O)NC1CCCCC1", "viability index": "0.861 ± 0.13"}, {"smiles": "COc1cccc(NC(=O)C[C@@H]2CC[C@@H]3[C@H](COc4ccc(NC(=O)C5CC5)cc4C(=O)N3C)O2)c1", "viability index": "1.14 ± 0.079"}, {"smiles": "C[C@@H]1CN([C@@H](C)CO)C(=O)c2cc(NC(=O)C3CCCCC3)ccc2O[C@@H](C)CCCCO[C@@H]1CN(C)C(=O)CCC(F)(F)F", "viability index": "1.05 ± 0.025"}, {"smiles": "O=C(Nc1cccc(F)c1)N1CCCCN2[C@H](C1)[C@@H](c1ccc(C#Cc3cccnc3)cc1)[C@@H]2CO", "viability index": "0.81 ± 0.05"}, {"smiles": "Cc1noc(C)c1C(=O)N(C)C[C@@H]1OCc2ccccc2-c2ccccc2C(=O)N([C@@H](C)CO)C[C@@H]1C", "viability index": "0.983 ± 0.044"}, {"smiles": "CNC[C@@H]1OCCCC[C@@H](C)Oc2ccc(NS(=O)(=O)c3ccc(F)cc3)cc2C(=O)N([C@@H](C)CO)C[C@@H]1C", "viability index": "1.01 ± 0.019"}, {"smiles": "CN1C(=O)c2cc(NC(=O)c3cccc(F)c3)ccc2OC[C@@H]2O[C@H](CC(=O)NCC3CCCCC3)CC[C@H]21", "viability index": "1.12 and 1.19"}, {"smiles": "N#C[C@@H]1[C@H](c2ccccc2)[C@@H](CO)N1C(=O)c1ccccc1F", "viability index": "1.11 ± 0.031"}, {"smiles": "CC(C)NC(=O)N(C)C[C@@H]1Oc2ccc(NC(=O)c3ccncc3)cc2C(=O)N([C@H](C)CO)C[C@@H]1C", "viability index": "0.954 ± 0.054"}, {"smiles": "CN1C(=O)c2cc(NS(C)(=O)=O)ccc2OC[C@H]2O[C@H](CC(=O)NCc3ccccc3)CC[C@@H]21", "viability index": "1.19 ± 0.015"}, {"smiles": "C[C@H](CO)N1C[C@H](C)[C@H](CN(C)Cc2ccncc2)OCCCC[C@H](C)Oc2ccc(NC(=O)Cc3ccccc3)cc2C1=O", "viability index": "1.1 ± 0.042"}, {"smiles": "C[C@@H](NC(=O)C[C@@H]1C=C[C@@H](NC(=O)c2cccnc2)[C@@H](CO)O1)c1ccccc1", "viability index": "1.05 ± 0.014"}, {"smiles": "C[C@H](CO)N1C[C@H](C)[C@H](CN(C)S(=O)(=O)c2ccc(Cl)cc2)Oc2c(NC(=O)Nc3ccc(F)cc3)cccc2C1=O", "viability index": "1.13 ± 0.045"}]}]}
